Source: PubChem BioAssay AID686978 (National Center for Advancing Translational Sciences (NCATS), 2013)
About 64,000 (15%) of roughly 420,000 compounds were called active. Inconclusive means that the source gave no clear call. Such entries were picked first, then a sample of the others. Calls come from the whole dose curve; as a rule, active = well fitted inhibition curve with a large enough effect; inconclusive = small, poorly fitted or top-dose-only effect; inactive = flat fitted curve, though single readings scatter. Potencies of inconclusive entries are left out as doubtful fits.
% is set by controls: 0 for no effect and ±100 for the full control effect; potency is the fitted concentration of half-maximal effect; tags give direction and shape of the fitted curve.

Experiment: qHTS for Inhibitors of human tyrosyl-DNA phosphodiesterase 1 (TDP1): qHTS in cells in absence of CPT; note: nearly all actives have a fitted effect of over 55% in size
Conditions: DT40 Tdp1-/- hTDP1 cells, no CPT, ATP luminescence, 48 h; activity change, negative = growth inhibition: at 46.2 µM (top of the series) unless noted
In short: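 Chicken DT40 Tdp1-/- cells stably complemented with human TDP1 were seeded at 400 cells/well with DMSO in place of 20 nM camptothecin. After compound pinning, cells grew at least 48 hr at 37 °C; viability read by CellTiter-Glo luminescence.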
For `Clc1ccccc1/C=N/c1cc(-c2ccccc2)nn1-c1ccccc1`, the Potency was inconclusive [inhibitor, single point].
For `Cc1ccc(C(C)C)c(OCC(=O)OCC(=O)NC2CC2)c1`, the “activity change, negative = growth inhibition” value was inactive: -28%.
In the case of `CC(C)N(Cc1nc(-c2ccc(Cl)cc2)no1)C(=O)c1cccs1`, the Potency is reported as inconclusive [inhibitor, single point].
In the case of `CN1CCc2c(sc(NC(=O)C3CCN(S(=O)(=O)c4cccs4)CC3)c2C(N)=O)C1`, the “activity change, negative = growth inhibition” value is reported as inactive: 2.59%.
For `CCn1c(SCC(=O)c2cc(C)ccc2C)nc2cc(S(=O)(=O)N3CCOCC3)ccc21`, the Potency was active: 18.4 µM.
For `Cc1ccc(NC(=O)CSc2nc(C)c(C)c(C)n2)cc1S(=O)(=O)N1CCOCC1`, the Potency was inconclusive [inhibitor, single point].
With `Cc1ccccc1CNC(=O)c1ccc2sc([C@H]3C[C@H](O)[C@@H](CO)O3)nc2c1` the Potency was inconclusive [inhibitor, single point].
For `Cc1ccc(C(=O)NNC(=O)c2cc3cc4ccccc4nc3s2)cc1`, the Potency was inconclusive [inhibitor, single point].
In the case of `CC(C)NC(=O)CSc1nc(-c2ccccc2)cs1`, the Potency is reported as inconclusive [inhibitor, full curve, poor fit].
For `Cc1ccnc(NC(=O)CCC(=O)N(CC(=O)NCCc2ccccc2)c2ccc(F)cc2)c1`, the activity change, negative = growth inhibition was inconclusive: -30.7% [inhibitor].
In the case of `CCN(CC)C(=O)c1ccc(CS(=O)(=O)Cc2ccccc2)cc1`, the “activity change, negative = growth inhibition” value is reported as inactive: 4.07%.
With `Cc1ccccc1-c1nc(CS(=O)CC(=O)NCCN2CCN(Cc3ccccc3)CC2)c(C)o1` (stereo not drawn) the Potency was inconclusive [inhibitor, single point].
With `CNC(=S)N1CCN(c2nc(-c3cccc(OC)c3)cs2)CC1` the Potency was inconclusive [inhibitor, single point].
With `O=C(c1cccs1)c1cn(CCOc2ccccc2Cl)c2ccccc12` the Potency was inconclusive [inhibitor, single point].
For `COc1ccc(NC(=O)CSc2nc(-c3ccc(F)cc3)c3cccc(C)c3n2)cc1`, the Potency was inconclusive [inhibitor, full curve].
With `CCOc1cc(S(=O)(=O)N2CC=C(c3ccc(F)cc3)CC2)c(OCC)cc1-n1cnnn1` the Potency was active: 10.3 µM.
For `COc1ccc(CCNC(=O)Nc2nc(C(N)COCc3ccccc3)cs2)cc1OC` (stereo not drawn), the Potency was inconclusive [inhibitor, single point].
In the case of `Cc1ccc(C)c(NC(=O)CCc2c(C)nn(-c3ccc(N4CCCC4)nn3)c2C)c1`, the Potency is reported as inconclusive [inhibitor, partial curve].
